# Test results reported in PubChem BioAssay AID488969 (Vanderbilt High Throughput Screening Facility, 2010).
# The full ranking holds about 110,000 compounds; the median of “z-score” is about -0.1, and the highest 2% start at about 2. This is one part of the list. Activity calls are given as the source filed them.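 Rule for the calls: active = z-score in the third read window above 3 or below -3; inactive = the rest.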
# Target: Metabotropic glutamate receptor 8 (Rattus norvegicus) (UniProt P70579)
# Chain of UniProt P70579 (P70579 whole entry, looked up): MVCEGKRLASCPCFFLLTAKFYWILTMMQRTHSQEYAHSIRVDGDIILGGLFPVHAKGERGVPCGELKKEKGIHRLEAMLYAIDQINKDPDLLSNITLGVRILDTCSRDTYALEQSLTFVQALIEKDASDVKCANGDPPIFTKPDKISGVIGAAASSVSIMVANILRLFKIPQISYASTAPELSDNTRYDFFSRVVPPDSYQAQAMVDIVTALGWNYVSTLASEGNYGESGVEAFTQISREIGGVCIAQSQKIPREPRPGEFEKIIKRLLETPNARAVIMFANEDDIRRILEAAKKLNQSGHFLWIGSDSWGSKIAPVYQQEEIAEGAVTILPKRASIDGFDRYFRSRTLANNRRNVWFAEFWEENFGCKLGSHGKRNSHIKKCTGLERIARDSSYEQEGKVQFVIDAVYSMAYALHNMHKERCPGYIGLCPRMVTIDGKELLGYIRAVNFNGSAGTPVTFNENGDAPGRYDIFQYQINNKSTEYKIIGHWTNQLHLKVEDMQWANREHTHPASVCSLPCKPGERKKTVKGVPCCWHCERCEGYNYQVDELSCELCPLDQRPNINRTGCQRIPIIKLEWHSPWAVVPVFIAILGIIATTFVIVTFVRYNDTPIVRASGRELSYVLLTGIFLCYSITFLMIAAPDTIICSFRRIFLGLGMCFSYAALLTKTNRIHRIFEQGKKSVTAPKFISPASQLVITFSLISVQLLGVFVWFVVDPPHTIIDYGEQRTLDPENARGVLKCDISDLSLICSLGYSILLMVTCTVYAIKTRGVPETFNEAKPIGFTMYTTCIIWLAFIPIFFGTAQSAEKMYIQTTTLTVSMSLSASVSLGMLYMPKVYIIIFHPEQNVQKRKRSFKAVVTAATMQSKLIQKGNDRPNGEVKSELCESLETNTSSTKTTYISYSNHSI
# Test: mGluR8 Gi/Go-coupled signaling modulation – cell-based, rat, thallium flux, HTS, primary screen (AID 488969)
# Settings: HEK293 rat mGluR8, GIRK (G protein-gated inwardly rectifying potassium channel) thallium flux, FluoZin2; at 10 µM; stronger effect = higher value; submaximal glutamate (EC20) added with thallium
row,Structure (SMILES),z-score
1,CC(CCc1ccccc1)NCc1ccncc1 (configuration not stated),0.717
2,C/C(=N\OC(=O)c1ccccc1F)c1nccs1,0.257
3,O=C(Cn1cc(SCc2ccc(Cl)cc2)c2ccccc21)N1CCOCC1,-2.33
4,COc1ccccc1OCCSc1nc2ccccc2c(=O)[nH]1,0.235
5,O=[n+]1c2c(n([O-])c3c1CCCC3)CCCCC2,-0.198
6,CC1CCCCN1CCNC(=O)C1CCN(S(=O)(=O)N2CCCCC2)CC1 (configuration not stated),1.12
7,CCN(C(=O)CSc1nnc(Nc2cccc(C)c2C)s1)C1CCS(=O)(=O)C1 (configuration not stated),-0.226
8,S=C(Nc1ccc(Oc2ccccc2)cc1)NC1CCCCCC1,0.425
9,N#Cc1cc2c(nc1SCc1ccc(Cl)cc1)CCCC2,-0.0506
10,COC(=O)C(O)(CC(=O)Nc1ccc(Cl)cc1Cl)C(F)(F)F (configuration not stated),0.0101
11,CC(NC(=O)c1ccc(-c2cc(C(F)(F)F)ccc2Cl)o1)c1ccccc1 (configuration not stated),-0.132
12,O=C(CN1C(=O)c2cccc3cccc(c23)C1=O)N1CCCCCC1,0.175
13,COc1ccccc1NC(=O)CN1C(=O)NC(C)(C)C1=O,0.521
14,Cc1ccc(C(=O)OCC(=O)c2c[nH]c3ccccc23)cc1,-0.02
15,CC(=O)c1ccc(OCCCC(=O)Nc2cc(S(=O)(=O)N(C)C)ccc2C)cc1,0.264
16,O=C(NCc1cn(-c2ccccc2)nc1-c1ccc(F)cc1)c1cccc([N+](=O)[O-])c1,-0.22
17,Oc1[nH]c2ccccc2c1N=Nc1ccccc1F,0.0754
18,O=C(NCc1ccncc1)c1ccc(Cn2cc(C(F)(F)F)ccc2=O)cc1,0.175
19,CCOC(=O)c1ccccc1NC(=O)CSc1cccc[n+]1[O-],-0.181
20,CNC(=S)N/N=C/c1c(C)nn(-c2cccc(Cl)c2)c1Cl,-0.134
21,CC(C)c1ccccc1NC(=O)CCc1nc2ccccc2s1,0.873
22,Cc1nn(Cc2cccc(C(=O)Nn3cc([N+](=O)[O-])cn3)c2)c(C)c1[N+](=O)[O-],0.801
23,CCCCN(CC)C(=O)CN(C)S(=O)(=O)c1cccc2nsnc12,1.11
24,O=C(Nc1ccc(Cl)cc1)ON=C1CCCC1,0.0813

row,Structure (SMILES),z-score
1,COc1cc(CNCCC2CCOC(C)(C)C2)ccc1O (configuration not stated),0.188
2,FC(F)(F)c1cc(-c2ccco2)nc(NCc2ccc(Cl)cc2)n1,0.341
3,Cc1ccc(NCCC(=O)c2cccc([N+](=O)[O-])c2)c(C)c1,-0.174
4,COC(=O)C1OC2(OC1C(=O)OC)c1ccccc1-c1ccccc12 (configuration not stated),-0.568
5,Cc1cccc(N2CN(Cc3ccco3)CNC2=S)c1C,-2.05
6,CCOc1ccc(C(=O)CN2CCN(S(=O)(=O)c3ccc(Br)cc3)CC2)cc1,active: 4.08
7,CN(NC(=O)c1ccccc1)c1nc2ccccc2nc1C(F)(F)F,-0.409
8,O=C(CC(c1ccccc1)C1CCCCC1=O)c1ccco1 (configuration not stated),-0.327
9,O=c1c2ccccc2nc(SCc2ccc([N+](=O)[O-])cc2)n1CCCO,-0.224
10,CCOc1ccccc1-c1n[nH]c(=S)o1,-0.00648
11,COc1cc2c(cc1OC)C(C(=O)NCCN1CCOCC1)C1c3ccccc3CCN1C2=O (configuration not stated),-1.12
12,Cc1occc1C(=O)N=Nc1c(O)[nH]c2ccc(Br)cc12,-0.135
13,O=C(O)CCn1c(-c2ccccc2)cc2c1CCCC2=O,0.0696
14,O=[N+]([O-])c1ccc(N2CCN(S(=O)(=O)c3ccccc3)CC2)cc1NCc1cccnc1,-0.159
15,Cc1nc(NC(=O)CC(C)C)sc1-c1csc(Nc2ccc(Cl)cc2Cl)n1,0.0283
16,COc1ccc(/C=C2\N=C(C)N(c3ccc4ccccc4c3)C2=O)cc1OC,-0.712
17,COc1ccc(CN(C)CC(=O)c2c(N)n(Cc3ccccc3)c(=O)n(C)c2=O)c(OC)c1,1.36
18,Cc1ccc([N+](=O)[O-])cc1NC(=O)c1ccoc1C,-0.36
19,CN1c2ccccc2C(O)=C(C(=O)Nc2ccccc2)S1(=O)=O,-0.291
20,O=C(COc1ccc(Cl)cc1)NCc1nnc(SCC(=O)Nc2ccccc2)o1,-0.219
21,Cc1cc(C)c[n+](CC(=O)c2ccc(-c3ccccc3)cc2)c1,0.0767
22,CS(=O)(=O)N1CCN(c2ccccc2NC(=O)c2ccc(Cl)cc2)CC1,0.216
23,Cc1cc(N(CN2CCCC2=O)C(=O)c2ccc(F)cc2)no1,-0.111
24,CC(=O)NS(=O)(=O)c1ccc(NC(=O)c2cc(-c3cccs3)nc3ccccc23)cc1,0.183

row,Structure (SMILES),z-score
1,Cn1c(=O)c2c(nc(NCc3ccco3)n2CCc2ccccc2)n(C)c1=O,-0.121
2,O=C(O)CSCc1c(F)cccc1Cl,-0.658
3,O=C(COc1cccc2ccccc12)NNC(=O)c1cccs1,0.406
4,COc1ccc(C(=O)NC2CCN(C(=S)Nc3cc(C)ccc3C)CC2)cc1,0.0265
5,CCn1c(SCC(=O)NNC(=O)Cc2ccccc2)nnc1-c1ccccc1,-0.123
6,CCOc1ccc2nc(NC3=NC(c4ccc(OC)cc4)CC(=O)N3)nc(C)c2c1 (configuration not stated),0.0376
7,CCOC(=O)CSC1=NC(=O)/C(=C/c2ccc(OC)cc2)S1,-0.203
8,Cc1nnc(NC(=O)c2ccc(S(=O)(=O)N3CCCCCC3)cc2)o1,-0.304
9,CC(C)Oc1cccc(C(=O)Nc2ccccc2N2CCOCC2)c1,-0.964
10,CCc1nc2ccccc2n1CC(C)C(=O)O (configuration not stated),-0.187
11,Cc1c(C#N)c2ccccc2n1CC(=O)NCc1cccnc1,-0.39
12,CCN(CC)C(=S)Nc1ccc([N+](=O)[O-])cc1,0.194
13,Nc1ccc2nc(-c3ccc(N)c(Cl)c3)[nH]c2c1,-0.784
14,Cc1nc2nc(Cc3ccccc3)nn2c(C)c1Cl,-0.327
15,C=CCn1c(SCC(N)=O)nnc1-c1cc2c(s1)CCC(CC)C2 (configuration not stated),-0.502
16,O=C(CSc1nnc(-c2ccncc2)n1Cc1ccccc1)NC1CCCc2ccccc21 (configuration not stated),-0.296
17,COC(=O)Cn1c(=NC(=O)c2ccc(Cl)s2)sc2cc(F)ccc21,0.00472
18,O=C(CSc1nnc(-c2cccs2)n1-c1ccccc1)N1CCCC1,0.344
19,Cc1ccc(C(=O)C2C(=O)c3ccccc3C2=O)cc1,-0.39
20,CN(Cc1ccccc1)c1ncnc2ccc(Br)cc12,-0.191
21,CCn1c(CSc2nc3ccccc3[nH]2)n[nH]c1=S,-0.483
22,CCCOc1ccc(C2C(C(=O)c3ccc(C)o3)=C(O)C(=O)N2Cc2cccnc2)cc1 (configuration not stated),-0.361
23,CN1CCN(CCNC(=O)c2cc3c(=O)n(C)c4ccccc4c3n2C)CC1,0.327
24,Cc1nn(Cc2ccc(F)cc2)c(C)c1NC(=O)c1noc2c1CCc1ccccc1-2,1.11
